# From paper PMC7819943, “Rice protein-binding microarrays: a tool to detect cis-acting elements near promoter regions in rice”
# This is one part of the list.
# Target: T1, OsWOX13 (Oryza sativa, UniProt Q5QMM3 1-267)
# T1 sequence: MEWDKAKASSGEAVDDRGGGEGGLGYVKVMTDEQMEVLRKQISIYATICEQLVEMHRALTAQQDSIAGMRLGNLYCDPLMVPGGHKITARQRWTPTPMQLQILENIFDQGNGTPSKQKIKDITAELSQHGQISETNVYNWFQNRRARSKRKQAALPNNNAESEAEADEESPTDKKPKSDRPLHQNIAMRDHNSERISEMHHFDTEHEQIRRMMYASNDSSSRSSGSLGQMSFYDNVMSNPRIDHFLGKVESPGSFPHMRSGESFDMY
# Assay: protein-binding microarray (RPBM); PBS, 2% BSA, 51.3 ng/ul salmon testes DNA, 50 uM zinc acetate, 200 nM TF, 25 C, 1 h; high values mean tight binding
# Settings: protein: recombinant; tags: N-terminal polyhistidine and DsRed monomer fusion (pET32a); label: CyDye5-dUTP incorporated in the synthesized complementary strand; 3' TTTTT single-stranded linker to array surface; dsDNA, one strand shown
# Summary of the method: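 For the binding signal, per-feature fluorescence intensity was read in arbitrary units on an Axon 4000B scanner. Before scanning, a 2% BSA-blocked custom Agilent array made double-stranded with Cy5-dUTP was washed after 1 h at 25 °C with 200 nM protein and 50 µM zinc acetate. The proteins were Ni–NTA-purified transcription factors with N-terminal polyhistidine and DsRed fusions, expressed in E. coli BL21-CodonPlus.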
row,Sequence,binding signal
1,TGAGCAAATGAGCTTAATTAGACAGAATTAGATAGAGAGACGGAGTCACCTAGTGCAG,10700 fluorescence intensity (a.u.)
2,ACAAATTGAGGGACCCAAAGTGAACTTATTCCAAGGAGGACGGAGTCACCTAGTGCAG,11000 fluorescence intensity (a.u.)
3,TGACTAACCTGCCTGATTGTCACAGGTCCCACTAGCTCTTCGGAGTCACCTAGTGCAG,4260 fluorescence intensity (a.u.)
4,CTAATTAATTTGTTCCCTTAATTGGCACTTTGAATCTAAGCGGAGTCACCTAGTGCAG,58300 fluorescence intensity (a.u.)
5,GCAGATTTACGTATTCATTGTGATAGATATATATCCCCAACGGAGTCACCTAGTGCAG,12600 fluorescence intensity (a.u.)
6,AATAGATGGTGATTTATTCATATTAAAGCGCATAATGGTACGGAGTCACCTAGTGCAG,7580 fluorescence intensity (a.u.)
7,GGATATGATTATTTAGTTAAAAGTTGCTAGAATTTCTTAGCGGAGTCACCTAGTGCAG,19000 fluorescence intensity (a.u.)
8,AAACGATTGATCACAATCCACGCATCGTGCCTCTCTCGCCCGGAGTCACCTAGTGCAG,14300 fluorescence intensity (a.u.)
9,CAATAATTTTATGTCGACGGCTAGAAAATATTAACCAAAGCGGAGTCACCTAGTGCAG,6320 fluorescence intensity (a.u.)
10,ATTTCAATTTTCAATTTGGACCACTCCATTATATCCATCTCGGAGTCACCTAGTGCAG,6820 fluorescence intensity (a.u.)
11,ATAAATTTAATGAGTTCATCATGATGATATATAGTACTTTCGGAGTCACCTAGTGCAG,22400 fluorescence intensity (a.u.)
12,ATATATATATATATATATATATTCATTAACATATATATAACGGAGTCACCTAGTGCAG,4810 fluorescence intensity (a.u.)
13,GTAAATTAGAGGTAGCAATCACGAGGGAGAGTTGGAGTTTCGGAGTCACCTAGTGCAG,11700 fluorescence intensity (a.u.)
14,AAAGATAGATATCCCAAATTTTAAAATTTAGTTGAACCTCCGGAGTCACCTAGTGCAG,8380 fluorescence intensity (a.u.)
15,GTCCAGGCTTAATTCAATCATTATATGTACATATCTTTGTCGGAGTCACCTAGTGCAG,6860 fluorescence intensity (a.u.)
16,TAAATAAATGATTGGGCTTGTTAATGGGCTTCCTCTTCCTCGGAGTCACCTAGTGCAG,41900 fluorescence intensity (a.u.)
17,TTAATTAAGCTAATTCTAAGACAATTCTTTGTGAATCCCCCGGAGTCACCTAGTGCAG,8920 fluorescence intensity (a.u.)
18,TTAGATAATGTGTAATCAATTTTCTATTTCACAAACATGACGGAGTCACCTAGTGCAG,14700 fluorescence intensity (a.u.)
19,CTCTCCATCTGATTTAGCTAGTCAAATTAGATACTCACTCCGGAGTCACCTAGTGCAG,3200 fluorescence intensity (a.u.)
20,TTTTCGTTTACTGATTTGTGTTCAACAAGCGGCAGATTCGCGGAGTCACCTAGTGCAG,3980 fluorescence intensity (a.u.)
21,TCCGCCAATCAGCGCCCACCTCTCCCCTCCTTTAATACCACGGAGTCACCTAGTGCAG,7870 fluorescence intensity (a.u.)
22,CAAAATTGTATCAAATTGTTTTAGTTTTGTACATATTATGCGGAGTCACCTAGTGCAG,26300 fluorescence intensity (a.u.)
23,TTAGCTTGATGGATTTGGTAAACCAAGAGGTCCTTCATGTCGGAGTCACCTAGTGCAG,6580 fluorescence intensity (a.u.)
